Test results taken from publication PMC12040169 (PLOS Biology, 2025).
The list shows a part of the results.

Tested on: T1, C. trachomatis L2/434/Bu expressing GFP (CTL2-GFP)
T1 construct: L2/434/Bu GFP intracellular growth in HeLa cells
Parameters: species or system HeLa; C. trachomatis total inclusion area by high-content imaging, normalised to DMSO
Conditions: total inclusion area; 28.5 h, 10 µM; inhibitor
Summary of the method: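 High-content images of fixed, Hoechst-stained infected cultures supply inclusion area and count (growth) plus nuclei number (viability), complementing bulk GFP/resorufin fluorescence. MIC determination is unchanged from the primary assay.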

Point of comparison: `O=C(O)c1cc(S(=O)(=O)NC(CO)C(O)c2ccc([N+](=O)[O-])cc2)ccc1Br` (centres unmarked) [CBK262515], “% of control remaining” value 103.197. Against it:
- CCCCN(CCCC)c1nccnc1Cl [CBK001576] — lower, 89.8183
- Cc1cc2c(cc3c(=O)n(CC(=O)NC4CCC4)nc(C)n32)s1 [CBK284118] — lower, 67.2683
- CC(=O)Nc1ccc(NC(=O)/C=C/c2ccc(Cl)cc2)cc1 [CBK264766] — lower, 95.0691
- Cc1cccn2c(CN3CC(O)C3)c(C(=O)N3CCCCC3)nc12 [CBK306662] — lower, 58.5053
- O=C(CCc1nc2ccccc2c(=O)[nH]1)N1CCN(Cc2ccc(Cl)s2)CC1 [CBK296937] — lower, 72.8333
- Cc1c(C(=O)N(C)Cc2csc3ccccc23)nnn1C1CCNCC1 [CBK304103] — lower, 17.8552
- CCC(C)NC(=O)CSc1nnc(-c2cccs2)n1CC (centres unmarked) [CBK296960] — lower, 86.0314
- CN(C)C1=NC(N(C)C)=NP(N(C)C)(N(C)C)=N1 [CBK261057] — lower, 96.0295
- CCC1CCCCN1C(=O)c1ccc(C(F)(F)F)cc1 (centres unmarked) [CBK081165] — lower, 55.7087
- O=C(Nc1ccc2oc(-c3cccnc3)nc2c1)c1ccc(N2CCOCC2)c([N+](=O)[O-])c1 [CBK268664] — lower, 94.1063
- Cc1ccc(CC(=O)N2CCC(Cc3ccccc3-c3ccccc3C)(C(N)=O)CC2)cc1 [CBK285727] — lower, 94.4043
- CC(C)c1ccc(C(C)NC(=O)Cn2cccc(C(=O)NC3CCCCC3)c2=O)cc1 (centres unmarked) [CBK286044] — higher, 114.302
- Cc1c(-c2cccc(NC(=O)c3ccccc3)c2)nc2ncccn12 [CBK287504] — higher, 106.234
- COc1ccc(C(C)C)cc1-c1nc(N)cc2cccnc12 [CBK081178] — lower, 84.8222
- Cc1cccc(-n2ncc3c(NCCCN4CCOCC4)ncnc32)c1 [CBK265710] — higher, 129.415
- COc1cc(OC)nc(CN2C(=O)CC3(C2=O)C(=O)N(CCCN(C)C(=O)c2ccco2)c2ccc(F)cc23)n1 (centres unmarked) [CBK076006] — lower, 94.3732
- COc1ccc(-c2ccc(=O)n3c2[C@@H]2C[C@@H](CN(C(=O)NC4CCCCC4)C2)C3)cc1 [CBK289189] — higher, 106.81
- O=C(O)CC1SC(Nc2ccc(F)cc2F)=NC1=O (centres unmarked) [CBK200115] — lower, 86.1719
- COc1ccc(N2CC(C(=O)N(C)CC(F)(F)F)CC2=O)cc1 (centres unmarked) [CBK281510] — lower, 100.217
- CC1CCN(Cc2ccc(-c3nnn(CC(=O)NCc4ccc(Cl)cc4Cl)n3)cc2)CC1 [CBK144180C] — lower, 76.4231
- Cc1cc(-c2ccc(=O)n(C3CCN(C(=O)C4CC4)CC3)n2)c(C)o1 [CBK284462] — higher, 110.954
- c1coc(-c2cn3ccnc3c(Nc3ccc4[nH]ccc4c3)n2)c1 [CBK037361] — higher, 109.24
- O=C(Nc1ccc2n(c1=O)C[C@H]1C[C@@H]2CN(C(=O)NC2CCCCC2)C1)c1cnccn1 [CBK289076] — lower, 72.051
- CCCc1c(C)nc2c(OC)cccc2c1SCCC(=O)O [CBK263890] — lower, 92.1567
- O=S(=O)(c1ccc(Cl)cc1)N1CCN(c2ccccc2)CC1 [CBK067987] — lower, 95.2033
- N#Cc1ccc(COc2ccccc2)cc1 [CBK002738] — lower, 93.6215
- Cc1nn(C)c2ncc(S(=O)(=O)NC(C)c3ccc(F)cc3)cc12 (centres unmarked) [CBK305793] — lower, 102.146
- CC(C)(C)c1ccc(-c2cnc3nc(N)ccc3c2)cc1 [CBK061888] — lower, 90.5378
- O=C(O)C(c1c[nH]c2ccc(OCc3ccccc3)cc12)N1CCCC1 (centres unmarked) [CBK286686] — lower, 62.2891
- Cc1c(C(=O)N2CCCC(c3nc(C)n4ccsc34)C2)cnn1C (centres unmarked) [CBK284593] — lower, 99.1408
- CCOc1cc(C)c(Cl)cc1S(=O)(=O)NCc1ccncc1 [CBK269954] — lower, 43.6709
- CC(CC(=O)O)CC(=O)Nc1cccc(C(=O)O)c1 (centres unmarked) [CBK265651] — lower, 95.4945
- Cc1cnn(C)c1CN1CCNC(=O)C1c1ccccc1C(F)(F)F (centres unmarked) [CBK304260] — higher, 121.795
- CCc1ccc(N(CC(=O)NCc2ccccn2)S(C)(=O)=O)cc1 [CBK265322] — higher, 105.704
- Nc1nc2c(ccn2[C@@H]2O[C@H](CO)[C@H](O)C2O)c(=O)[nH]1 (some centres unmarked) [CBK201190] — lower, 102.814
- Nn1c(COc2ccccc2)nnc1SCC(=O)c1ccc2c(c1)CCCC2 [CBK268466] — lower, 75.5264
- O=[N+]([O-])c1ccc(N2CCN(S(=O)(=O)c3ccc4ccccc4c3)CC2)cc1NCc1ccco1 [CBK264417] — higher, 112.685
- Cc1cc(OC(F)(F)F)ccc1NS(=O)(=O)c1ccc(-c2ccon2)s1 [CBK062361] — lower, 99.1125
- COc1ccc(S(=O)(=O)N2CCCCC2)cc1NC(=O)c1ccc(-c2nnn[nH]2)cc1 [CBK297128] — lower, 92.144
- Cc1cc(C)nc(N2CCC(CC(=O)N3CCCCC3CN3CCCC3)CC2)n1 (centres unmarked) [CBK286254] — higher, 108.969
- CC[C@H]1CN(C(=O)Nc2cccc(OC)c2)CC[C@H]1CC(=O)O [CBK288778] — lower, 90.1495
- COc1cccc2cc(C(=O)N3CCN(CCO)CC3)c(=O)oc12 [CBK293932] — lower, 102.368
- O=C(c1ccccc1)N1C[C@@H](c2ccsc2)[C@@H]2CN(Cc3cccc(Cl)c3)CC[C@@H]21 [CBK285603] — lower, 62.6633
- CCc1c(C)nc2c(C(=O)N3CCOCC3)cnn2c1C [CBK162134] — lower, 91.2767
- CN1CCN(C(=O)CN(Cc2ccccc2)S(C)(=O)=O)CC1 [CBK265745] — lower, 67.1746
- CC1(C)[C@H]2CC[C@]1(C)[C@@H](OCCNc1ccccc1)C2 [CBK021967] — lower, 61.6808
- CC(=O)Nc1ccc(Nc2cc(C)nc(-n3nc(C)cc3C)n2)cc1 [CBK287746] — lower, 74.3254
- O=C(Cc1csc(-c2ccc(Cl)cc2)n1)Nc1ccccn1 [CBK107364] — lower, 95.7685
- COc1ccc(NC(=O)Nc2nn(Cc3ccc(Cl)cc3Cl)cc2Br)cc1OC [CBK266930] — higher, 116.663
